In all, about 110,000 compounds were measured (“z-score”: median about -0.1, highest 2% from about 2 on). The list shows a part of the results. Active and inactive are the calls of the source.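 Rule for the calls: active = z-score in the third read window above 3 or below -3; inactive = the rest.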
These compounds were tested against Metabotropic glutamate receptor 8 (Rattus norvegicus) (UniProt P70579) (assay: rat mGluR8 modulators via GIRK flux, primary screen, cell-based, thallium flux, HTS (AID 488969)). Conditions: HEK293 rat mGluR8, GIRK (G protein-gated inwardly rectifying potassium channel) thallium flux, FluoZin2; at 10 µM; stronger effect = higher value; submaximal glutamate (EC20) added with thallium.
Chain of UniProt P70579 (P70579 whole entry, looked up): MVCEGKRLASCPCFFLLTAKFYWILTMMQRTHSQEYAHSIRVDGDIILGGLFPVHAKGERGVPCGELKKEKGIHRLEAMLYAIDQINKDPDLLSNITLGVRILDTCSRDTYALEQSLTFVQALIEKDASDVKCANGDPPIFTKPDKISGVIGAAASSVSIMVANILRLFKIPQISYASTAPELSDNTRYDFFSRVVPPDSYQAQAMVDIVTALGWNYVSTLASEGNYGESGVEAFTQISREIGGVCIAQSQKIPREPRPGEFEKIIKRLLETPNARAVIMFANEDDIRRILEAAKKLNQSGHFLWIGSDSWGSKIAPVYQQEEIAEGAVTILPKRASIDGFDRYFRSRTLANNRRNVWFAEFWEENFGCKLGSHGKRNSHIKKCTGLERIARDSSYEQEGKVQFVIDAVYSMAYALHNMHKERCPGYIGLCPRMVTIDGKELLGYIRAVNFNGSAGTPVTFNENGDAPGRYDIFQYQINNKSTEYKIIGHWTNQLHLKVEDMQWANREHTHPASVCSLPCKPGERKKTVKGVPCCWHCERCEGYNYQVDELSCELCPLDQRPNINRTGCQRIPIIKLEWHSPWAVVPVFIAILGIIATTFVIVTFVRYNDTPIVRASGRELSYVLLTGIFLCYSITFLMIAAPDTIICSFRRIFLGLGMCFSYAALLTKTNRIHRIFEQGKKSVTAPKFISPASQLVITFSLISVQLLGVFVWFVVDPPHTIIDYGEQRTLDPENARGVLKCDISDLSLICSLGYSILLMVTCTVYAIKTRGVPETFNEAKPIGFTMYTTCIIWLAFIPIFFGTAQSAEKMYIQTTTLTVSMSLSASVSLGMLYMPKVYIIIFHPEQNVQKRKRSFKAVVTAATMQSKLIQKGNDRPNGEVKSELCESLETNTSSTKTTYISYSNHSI
Compound `Brc1ccc(-c2csc(NC3=NCCCCC3)n2)cc1` has a z-score of -2.18.
Compound `CCN(CC)S(=O)(=O)c1ccc(N2CCOCC2)c(C(=O)O)c1` has a z-score of -0.625.
`CC1CCN(c2nc3c(c(=O)[nH]c(=O)n3C)n2CCSc2nc3ccccc3o2)CC1` gave a z-score of 0.0449.
Compound `CCOC(=O)c1c(NC(=O)c2ccoc2C)sc(C(=O)N(C)C)c1C` has a z-score of -0.113.
`O=C(Nc1ccccc1Oc1ccccc1)c1cc([N+](=O)[O-])ccc1Cl` gave a z-score of -0.493.
`COC(=O)CSc1nnc([C@H](Cc2ccccc2)NC(=O)OC(C)(C)C)o1` gave a z-score of 0.138.
With `Nc1cc(=O)[nH]c(SCCNS(=O)(=O)c2ccccc2)n1` the z-score was -0.896.
`O=C(c1ccc(Br)s1)N1CCN(C/C=C/c2ccccc2)CC1` gave a z-score of -0.21.
`Cc1nn(C)c(C)c1CN(C)C(=O)c1cc2nc(-c3ccco3)cc(C(F)(F)F)n2n1` was tested, and the z-score was 0.382.
Compound `Cc1ccnc(NC(=O)/C=C/c2cccs2)c1` has a z-score of -0.491.
`Cc1ccc(CNc2ccc(CNc3ncn[nH]3)cc2)cc1` was tested, and the z-score was 0.173.
`O=C(Nc1ccccc1)Nc1nnc(-c2cccs2)s1` gave a z-score of -0.264.
Compound `CC/C(=N/O)c1cnnc(SC)n1` has a z-score of -0.0711.
Compound `COCC(=O)NCCc1nc(-c2ccccc2)cs1` has a z-score of -0.0682.
`O=C(NCc1ccc(-c2nc3ccccc3s2)cc1)c1ccc(Br)o1` was tested, and the z-score was -0.21.
`O=C(CC1(O)C(=O)Nc2ccccc21)c1ccc2c(c1)OCO2` (stereo not given) was tested, and the z-score was 0.211.
With `CCC1Oc2ccc(C)cc2N(CC(=O)N(Cc2ccncc2)Cc2ccco2)C1=O` (stereo not given) the z-score was -1.65.
`COC(=O)c1[nH]c2ccc(C)cc2c1NC(=O)c1ccccc1[N+](=O)[O-]` gave a z-score of 0.816.
Work on `CCC(C)[C@H](NC(=O)NCc1ccccc1)C(=O)O` (stereo not given in full) yielded a z-score of -0.254.
`O=[N+]([O-])c1ccc(Sc2nc3ccccc3o2)c([N+](=O)[O-])c1` showed a z-score of 1.27.
`CCn1ncc2c1C(=O)NC1c3ccccc3C(=O)N21` (stereo not given) showed a z-score of 0.156.
Work on `COc1cccc(-c2nnc(N(C)C(=O)c3ccno3)s2)c1` yielded a z-score of -0.545.
`O=C(CN1CCc2ccccc2C1)Nc1cc(S(=O)(=O)N2CCOCC2)ccc1N1CCCC1` showed a z-score of -0.328.
Work on `CSCCC(NS(=O)(=O)c1ccc(Cl)cc1)C(=O)OCC(=O)NC1CCCCC1` (stereo not given) yielded a z-score of -0.148.
Compound `CC(=O)NC1=NN(C(C)=O)C(C)(CS(=O)(=O)c2ccc3ccccc3c2)S1` (stereo not given) has a z-score of 0.537.
In the case of `Clc1ccc(-c2csc3ncnc(NCCN4CCOCC4)c23)cc1`, the z-score is reported as 0.63.
For `COc1ccc(NC(=S)N2CCC(N(C)CC3CCCO3)CC2)cc1Cl` (stereo not given), the z-score was 0.164.
`Cc1nc(CC(=O)c2c(C)cc(O)cc2O)cs1` gave a z-score of -0.458.
Work on `CCOC(=O)N1CCN(C(=O)CCn2nc(-c3ccc(Cl)cc3)ccc2=O)CC1` yielded a z-score of -0.736.
For `Cc1ccc(NC(=S)N(CCCN2CCOCC2)Cc2ccccn2)cc1`, the z-score was 0.169.
For `CC(C)COP(=O)(c1ccc(N(C)C)cc1)C(Nc1ccccc1)c1ccccc1` (stereo not given), the z-score was -0.803.
Compound `COc1cc(OC)c(C2=NOC(C(=O)NCCc3ccccc3)C2)cc1Cl` (stereo not given) has a z-score of -0.272.
For `Cc1ccccc1OCC(=O)NC(=S)Nc1ccc(N2CCOCC2)c(Cl)c1`, the z-score was 0.328.
In the case of `Cc1cc(C)c2nc(SCc3ccc([N+](=O)[O-])cc3)nc(C)c2c1`, the z-score is reported as -0.294.
Work on `CC(=O)c1cccc(-n2c(CCC(=O)O)ccc2-c2cccs2)c1` yielded a z-score of -0.777.
In the case of `CCSc1nnc(NC(=O)CSc2nc3c(c(=O)n2-c2ccccc2)SCC3)s1`, the z-score is reported as -0.397.
In the case of `COCCNC(=O)C(c1ccco1)N(C(=O)Cn1nnc2ccccc21)c1cccc(C)c1C` (stereo not given), the z-score is reported as 0.429.
Work on `Clc1nc(NCc2cccnc2)nc(N2CCOCC2)n1` yielded a z-score of -0.546.
Work on `COc1cc(OC)cc(C(=O)N2c3ccc(F)cc3CCC2C)c1` (stereo not given) yielded a z-score of -1.02.
In the case of `COc1ccc(CN2CCCC(C(=O)N(C)Cc3ccccc3)C2)cc1OC` (stereo not given), the z-score is reported as -0.456.
`CCSc1ccc(-c2nn(-c3ccccc3)cc2/C=C(/C#N)C(=O)NC)cc1` was tested, and the z-score was -0.126.
`O=C(/C=C/c1c(F)cccc1Cl)Nc1ncccn1` showed a z-score of -0.288.
Compound `Oc1ccc(N=Nc2nc(-c3ccccc3)c(-c3ccccc3)[nH]2)cc1` has a z-score of -0.218.
`FC(F)(F)c1nc2ccccc2n2c(-c3ccc(Cl)cc3Cl)nnc12` gave a z-score of -0.146.
`CN(C)N1C(N)=C(C#N)C(c2ccsc2)C2=C1CCCC2=O` (stereo not given) was tested, and the z-score was -0.193.
In the case of `CN1CCN(C2CCCCCC2)CC1`, the z-score is reported as 0.192.
`COc1ccc(NC(=O)CC2C(=O)N(c3ccc(Cl)cc3)C(=S)N2NC(=O)c2cccc(F)c2)cc1` (stereo not given) showed a z-score of 0.0601.
In the case of `Cc1cc(C)cc(NC(=O)C2CCN(S(=O)(=O)c3c(C)n[nH]c3C)CC2)c1`, the z-score is reported as -0.0293.
With `COc1ccc(Cl)cc1N1C(=O)C2CCCN2C1c1ccc(F)cc1` (stereo not given) the z-score was -0.785.
Work on `CCN1C(=O)CC(NCc2ccc3c(c2)OCO3)C1=O` (stereo not given) yielded a z-score of 0.243.
With `CCOc1nc(-c2ccc(OC)cc2)ccc1-c1noc(C)n1` the z-score was -0.105.
Work on `O=C(CSCCc1ccccn1)Nc1ccccn1` yielded a z-score of -0.34.
In the case of `CCc1nc(SCC(=O)N2c3ccccc3CC2C)c2c(C)c(C)sc2n1` (stereo not given), the z-score is reported as 0.0133.
For `Cc1c(NC(=O)c2ccc(CN3CCc4ccccc4C3)cc2)c(=O)n(-c2ccccc2)n1C`, the z-score was 0.529.
For `O=C(NCC(=O)N(CC1CCCO1)C(C(=O)NC1CCCCC1)c1ccc(F)cc1)c1ccco1` (stereo not given), the z-score was 0.579.
`CCc1ccc(OCC(=O)N/N=C(\C)c2ccc3c(c2)OCCO3)cc1` was tested, and the z-score was -0.773.
`CC(NC(=O)COc1ccc(/C=N/NC(=O)C(=O)Nc2ccccc2Br)cc1)c1ccccc1` (stereo not given) showed a z-score of 0.00853.
With `O=C(NCCc1c[nH]c2ccccc12)C1Cc2ccccc2CN1C(=O)c1ccco1` (stereo not given) the z-score was 0.0151.
`O=C1CCCC(O)=C1N=Nc1ccc2c(c1)OCO2` showed a z-score of -0.0975.
For `CC(O)/C=C/c1cccc[n+]1C` (stereo not given), the z-score was -0.0236.
In the case of `Cc1ccc(S(=O)(=O)N(CCCO)CC(O)CON=C2c3ccccc3-c3ccccc32)cc1` (stereo not given), the z-score is reported as 0.262.
Work on `COc1cccc(C(=O)N2CCN(C(=O)c3cccc(F)c3)CC2)c1` yielded a z-score of 0.212.
`CSc1nc(C)c(C(=O)Nc2ccccc2)c(C)c1C#N` was tested, and the z-score was 1.32.
`CCN1CN(Cc2ccco2)CNC1=S` was tested, and the z-score was -0.106.
With `COc1cc(NC(=O)CSCc2cnn(-c3ccccc3)c2-n2cccc2)cc(OC)c1` the z-score was active: 7.86.
`COCCN(C(=S)Nc1cccc(OC)c1)C(C)c1cccs1` (stereo not given) gave a z-score of -0.334.
Compound `CC(C)(C)n1nnnc1CN(Cc1ccco1)Cc1cc2cc3c(cc2[nH]c1=O)OCO3` has a z-score of 1.88.
Work on `NS(=O)(=O)c1ccc(NC(=S)Nc2cc(Cl)c(Cl)cc2Cl)cc1` yielded a z-score of -0.16.
`NC(=O)c1ccccc1NC(=O)/C=C/c1ccc(Cl)cc1` showed a z-score of 0.0369.
In the case of `CSc1nc(NC(C)(C)C)nc(Oc2ccc(=O)n(C)n2)n1`, the z-score is reported as -0.417.

— PubChem BioAssay AID488969 (Vanderbilt High Throughput Screening Facility, 2010)
